For 70 molecules, z-score results are on record in PubChem BioAssay AID488969 (Vanderbilt High Throughput Screening Facility, 2010).

The full ranking holds about 110,000 compounds; the median of “z-score” is about -0.1, and the highest 2% start at about 2. The list shows a part of the results. Calls of active or inactive are those of the source.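 The calls were made as follows: active = z-score in the third read window above 3 or below -3; inactive = the rest.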

This assay concerns the target Metabotropic glutamate receptor 8 (Rattus norvegicus) (UniProt P70579). Briefly: rat mGluR8 modulators via GIRK flux, primary screen, cell-based, thallium flux, HTS (AID 488969). The conditions noted are these: HEK293 rat mGluR8, GIRK (G protein-gated inwardly rectifying potassium channel) thallium flux, FluoZin2; at 10 µM; stronger effect = higher value; submaximal glutamate (EC20) added with thallium.
Chain of UniProt P70579 (P70579 whole entry, looked up): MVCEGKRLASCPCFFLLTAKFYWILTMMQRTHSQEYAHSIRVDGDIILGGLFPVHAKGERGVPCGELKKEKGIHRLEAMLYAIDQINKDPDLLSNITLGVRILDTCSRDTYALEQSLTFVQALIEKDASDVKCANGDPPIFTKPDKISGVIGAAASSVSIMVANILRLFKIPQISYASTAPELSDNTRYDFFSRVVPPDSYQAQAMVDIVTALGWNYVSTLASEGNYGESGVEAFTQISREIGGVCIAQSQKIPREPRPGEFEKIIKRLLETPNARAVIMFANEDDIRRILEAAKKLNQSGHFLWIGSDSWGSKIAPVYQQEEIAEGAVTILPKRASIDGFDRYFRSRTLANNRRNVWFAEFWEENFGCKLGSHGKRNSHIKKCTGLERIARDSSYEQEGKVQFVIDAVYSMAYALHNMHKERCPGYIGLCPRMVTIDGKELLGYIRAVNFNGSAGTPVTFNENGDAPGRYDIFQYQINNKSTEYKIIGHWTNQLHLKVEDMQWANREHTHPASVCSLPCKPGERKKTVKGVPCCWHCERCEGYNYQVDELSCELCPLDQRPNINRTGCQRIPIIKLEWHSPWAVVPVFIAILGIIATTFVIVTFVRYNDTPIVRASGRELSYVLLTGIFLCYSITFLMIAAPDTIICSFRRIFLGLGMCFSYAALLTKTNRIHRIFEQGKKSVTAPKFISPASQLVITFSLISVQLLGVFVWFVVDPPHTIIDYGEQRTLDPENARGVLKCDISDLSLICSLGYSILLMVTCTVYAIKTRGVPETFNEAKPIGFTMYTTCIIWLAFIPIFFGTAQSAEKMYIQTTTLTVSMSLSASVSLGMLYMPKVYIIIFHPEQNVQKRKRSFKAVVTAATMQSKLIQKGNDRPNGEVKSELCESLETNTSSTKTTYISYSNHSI
Turning to `COC(=O)c1cc2c(ccn2-c2ccc(F)cc2)n1Cc1ccc(OC)cc1`, the z-score was -0.808.

For the molecule `COc1ccccc1NC(=O)Nc1ccnn1Cc1cccs1`, the z-score is -0.188.

For the molecule `CCCc1nnc(SCC(=O)N2CCCC(C)C2)n1CC1CCCO1` (stereo not given), the z-score is -0.134.

`CCn1c(COc2cccc(OC)c2)nnc1SCC(=O)N1CCOCC1`: the z-score was -1.38.

With `N#Cc1ccsc1NC(=O)CN1CCN(c2ccc(O)cc2)CC1`, the z-score was active: -4.15.

Regarding `Cn1c(C(=O)NCCN2CCOCC2)cc2sccc21`, the z-score is -0.552.

With `CC(C)CC(C(=O)N1CCc2ccccc2C1)N1C(=O)c2ccccc2C1=O` (stereo not given), the z-score is -0.313.

As to `COc1ccc(C(=O)Oc2c(CN3CCOCC3)cc(Cl)c3cccnc23)cc1`, the z-score is -0.137.

The molecule `CCOC(=O)Cn1nnnc1CN(CCc1ccccc1)Cc1cc2cc(CC)ccc2[nH]c1=O` yielded a z-score of 0.497.

On to `O=S(=O)(CCc1nc2ccccc2s1)c1ccc2ccccc2c1`, for which the z-score is -0.2.

As to `Nn1c(SCC(=O)N2CCCc3ccccc32)nnc1-c1ccc(Cl)cc1`, the z-score is -0.232.

For `O=C(Nn1cc(C(=O)N2CCN(c3ccccc3F)CC2)c2ccccc2c1=O)c1cnccn1`, the z-score was -1.45.

For `COc1ccc(S(=O)(=O)NCCSc2ccc(Cl)cc2)cc1OC`, the z-score was -0.236.

With `Cc1noc(NS(=O)(=O)c2ccc(NC(=O)CSc3nc4ccccc4s3)cc2)c1C`, the z-score is -0.168.

For the molecule `CCN1CCN(CCn2c(=S)[nH]c3ccccc3c2=O)CC1`, the z-score worked out at 0.66.

`c1ccc(-c2nc(C3CCCCC3)no2)cc1`: the z-score was -0.12.

In the case of `CCn1c(SCC(=O)Nc2nnc(C)s2)nnc1-c1ccco1`, the z-score is -0.0211.

For `Cc1ccc(N2NC(C)(c3cccs3)NC2=S)cc1` (stereo not given), the z-score was -0.076.

With `COc1cc(S(=O)(=O)NCCCN2CCOCC2)ccc1Cl`, the z-score came out at 0.102.

Take `Cc1sc2ncnc(Nc3ccccc3)c2c1C`: the z-score is -0.0786.

`O=c1[nH]nc(Cc2ccc(-c3ccccc3Cl)o2)c2ccccc12` displayed a z-score of 0.00944.

Consider `CC1(C)N=C(SCC(=O)Nc2ccccc2)C(c2ccc(Cl)cc2)=N1`, for which the z-score came out at 0.527.

For the molecule `CC(C)C12CN3CCN(CC(C3)/C1=N\NC(=O)Nc1ccccc1)C2`, the z-score was -0.315.

Turning to `CCOC(=O)N1CCN(c2cc(N3CCN(CC)CC3)c(F)cc2[N+](=O)[O-])CC1C` (stereo not given), the z-score is 0.0139.

On to `Cn1c(CCCOc2ccc(Cl)cc2Cl)nnc1SCC(=O)Nc1ccc(F)c(Cl)c1`, for which the z-score was -0.0175.

Regarding `Cn1cc(C(CC(=O)O)C(=O)O)c2ccccc21` (stereo not given), the z-score amounted to 0.0131.

As for `Cc1ccc(S(=O)(=O)/N=C(/NC(=S)Nc2ccccc2)c2ccccc2)cc1`, the z-score was 0.34.

For `COc1cccc(C(=O)Nc2cc(=O)n(C)c(=O)n2C)c1OC`, the z-score is -0.112.

Take `CCCNc1[nH]c(=O)n(C)c(=O)c1N=O`: the z-score was -0.206.

As to `CCN(C(=O)c1cccc(Br)c1)c1ccccc1`, the z-score was -0.565.

For `CCOc1cc(CNCCSc2nnnn2C)cc(Br)c1OCc1ccccc1`, the z-score came out at 2.3.

As for `Cc1cc(C)n2nc(C(=O)OCC(=O)c3cc(C)n(C)c3C)nc2n1`, the z-score is -0.164.

`CCCNC(=O)C(=O)N/N=C/c1cccs1`: the z-score was -0.243.

As for `O=Cc1cn(CC(=O)N2CCCc3ccccc32)c2ccccc12`, the z-score was -0.254.

Consider `CCn1c(=O)c2c(O)cc(=O)oc2c2ccccc21`, for which the z-score was -0.0943.

For `CCC(=O)Nc1nc(CC(=O)Nc2ccccc2OC)cs1`, the z-score is -0.027.

With `COc1ccccc1CC1(C)NC(=O)N(CC(=O)Nc2cc(C)on2)C1=O` (stereo not given), the z-score amounted to 0.812.

For `COCCCn1c(SCC(=O)Nc2ccc(C(=O)OC)cc2)nc2ccccc2c1=O`, the z-score was determined as 0.0898.

The molecule `Cc1ccc2cc(C(c3nnnn3CC3CCCO3)N3CCCC4(CCCCC4)C3)c(=O)[nH]c2c1` (stereo not given) yielded a z-score of 0.0696.

Take `CC(OC(=O)c1snc(C(=O)NC2CCCCC2)c1N)C(=O)NC1CCCCC1` (stereo not given): the z-score was found to be 0.127.

As for `COC(=O)c1cccc(NC(=O)CCSc2ccc(Cl)cc2)c1C`, the z-score was -0.0393.

Turning to `COc1cc2nc(/C=C/c3cc(OC)c(OC)c(OC)c3)sc2cc1SC`, the z-score is -0.168.

In the case of `CSc1nc(SCC(N)=O)c2c3c(sc2n1)CN(C)CC3`, the z-score is -0.647.

Take `C=CCN1C(=O)C(Cc2ccc(C)cc2)S/C1=N/N=C/c1ccco1` (stereo not given): the z-score is -0.0743.

Turning to `O=C(CSc1ncc(-c2ccccc2)n1-c1ccccc1)NCc1ccco1`, the z-score was -0.867.

`COc1ccccc1-n1c(CNC(=O)c2ccco2)nnc1SCC(=O)Nc1nccs1`: the z-score is -0.513.

As for `CCOC(=O)N1CCN(C(=O)CSc2cc(C)nc3c(-c4ccccc4OC)c(C)nn23)CC1`, the z-score was -0.649.

For the molecule `CCOC(=O)Cn1c(=O)oc2cc(S(=O)(=O)NC3CCCc4ccccc43)ccc21` (stereo not given), the z-score stood at 0.143.

In the case of `O=S(=O)(c1ccccc1)N1CCn2c(nc3ccccc32)C1`, the z-score was -0.0705.

Take `Clc1cccc(Cl)c1Cn1cnc(=NCc2ccco2)c2[nH]cnc21`: the z-score is -0.33.

Consider `S=C(c1ccc(-c2ccc(Cl)cc2Cl)o1)N1CCCCC1`, for which the z-score was -0.256.

Take `Cc1cc(C(=O)OC(C)C(=O)Nc2cccc(S(=O)(=O)N3CCOCC3)c2)c(C)o1` (stereo not given): the z-score was -0.26.

Consider `O=C(c1ccc2c(=O)n(-c3ccccc3)c(=O)[nH]c2c1)N1CCCCC1`, for which the z-score came to 0.182.

Consider `CCN1C(=O)/C(=C/N(C(C)=O)c2ccccc2)N(c2ccccc2)C1=S`, for which the z-score stood at 1.79.

With `CCOc1cc(C(=O)Nc2c3c(nn2C(C)(C)C)CS(=O)C3)cc(OCC)c1OCC` (stereo not given), the z-score was -0.894.

As for `CCC(=O)Nc1sc2c(c1C#N)CC(C)(CC)OC2` (stereo not given), the z-score was -0.834.

Regarding `Cc1ccc(NC(=O)c2cc(S(=O)(=O)NCCc3ccccc3)ccc2F)cc1Cl`, the z-score was 0.122.

As for `Cc1cc(C)nc(-n2nc(C)c(C3(O)C(=O)Nc4ccc(F)cc43)c2N)n1` (stereo not given), the z-score was -0.784.

As for `Cc1cc(C(=O)NCc2ccccc2Br)no1`, the z-score is -0.0761.

Turning to `N/C(=N\OS(=O)(=O)c1ccccc1)c1cccnc1`, the z-score is -0.152.

On to `COc1cc2c(cc1OC)C(c1cccs1)N(C(=O)C(C)C)CC2` (stereo not given), for which the z-score is -0.132.

In turn, `COc1ccc(CC(=O)OCC(=O)NC(=O)NC(C)C)cc1` returned a z-score of 0.37.

The molecule `O=C(/C(=N\Nc1ccc([N+](=O)[O-])cc1)Sc1nnnn1-c1ccccc1)c1ccccc1` had a z-score of 0.236.

The molecule `S=c1[nH]nc(COc2ccccc2)n1/N=C/C=C/c1ccccc1` registered a z-score of 0.401.

Regarding `CCCCN(C)C/C(O)=C(\C#N)c1nc(-c2ccccc2)cs1`, the z-score came to 0.199.

As for `Cc1ccc(-c2cc(C(=O)N/N=C/c3c(C)nn(-c4ccccc4)c3C)n[nH]2)s1`, the z-score was -0.686.

In turn, `CCc1cc2c(cc3c(=O)n(CC(=O)NCCCN4CC(C)CC(C)C4)ncn32)s1` (stereo not given) had a z-score of 2.41.

The molecule `O=C(CSc1nnc(SCc2ccc(Cl)cc2)s1)N/N=C/c1c(Cl)cccc1Cl` displayed a z-score of 0.249.

Regarding `COc1ccc2c3c(c(=O)oc2c1OCC(=O)O)CCCC3`, the z-score amounted to 0.843.

As for `Cc1cccc(N2CCN(C(=O)Cc3c(C(=O)O)[nH]c4ccc(Cl)cc34)CC2)c1C`, the z-score is -1.15.
